The campaign covered roughly 150,000 compounds. About 6,500 (4.3%) were called active. This list was built around the results that the source calls inconclusive (neither active nor inactive); the mix of calls is not that of the screen. Calls follow the shape of the dose curve; as a rule, active = well fitted inhibition curve with a large enough effect (not every such curve was filed as active); inconclusive = small, poorly fitted or top-dose-only effect, or another doubt; inactive = no such curve, though single readings can be large or run the other way. No potency is given beside an inconclusive call; the fits are too rough.
These compounds were tested against 15-hydroxyprostaglandin dehydrogenase [NAD(+)] (Homo sapiens) (UniProt P15428) (assay: qHTS Assay for Inhibitors of HPGD (15-Hydroxyprostaglandin Dehydrogenase)). Conditions: purified HPGD, NADH fluorescence kinetic, PGE2 substrate; activity change, negative = inhibition: active compounds read low.
UniProt P15428, sequence (P15428 whole entry, looked up): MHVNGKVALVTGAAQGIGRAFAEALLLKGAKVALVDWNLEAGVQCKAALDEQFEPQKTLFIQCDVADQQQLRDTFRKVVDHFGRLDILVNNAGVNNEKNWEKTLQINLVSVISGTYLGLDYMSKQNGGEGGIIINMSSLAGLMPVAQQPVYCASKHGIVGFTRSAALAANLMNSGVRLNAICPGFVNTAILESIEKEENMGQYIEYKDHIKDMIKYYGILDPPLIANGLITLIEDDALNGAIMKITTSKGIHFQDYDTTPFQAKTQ
Summary of the method: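 NADH formation kinetics: reaction with 30 uM PGE2 and 1 mM NAD+ (final), 20 nM enzyme, Tris-HCl pH 8 with Tween 20, after 15 min compound preincubation at room temperature. Fluorescence change, last versus first of five reads.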
`CCN(Cc1ccccc1)C(=O)c1c[nH]c2ccc(S(=O)(=O)N(C)CCC#N)cc2c1=O` was tested, and the Potency was inconclusive [inhibitor, partial curve].
For `CCn1c(CCn2c3ccccc3c3ccccc32)n[nH]c1=S`, the Potency was inconclusive [inhibitor, partial curve].
In the case of `CCc1nnc(NC(=O)CCC(=O)N2CCN(C3c4ccccc4-c4ccccc43)CC2)s1`, the activity change, negative = inhibition is reported as inactive: -1.86%.
`CCOC(=O)c1ccc(NC(=O)CCOc2ccccc2)cc1` was tested, and the activity change, negative = inhibition was inactive: -7.45%.
For `O=C(O)CSSCC(=O)O`, the activity change, negative = inhibition was inactive: -3.36%.
With `O=C(c1ccc(F)cc1)n1ccc(-c2cnc(-c3ccccc3)s2)n1` the Potency was inconclusive [inhibitor, partial curve].
`O=C(NC1CCCCC1)N1CCN(C(c2ccccc2)c2ccccc2)CC1` was tested, and the activity change, negative = inhibition was inactive: -20.2%.
`O=C(NCC1CCCO1)c1nn2c(c1Cl)NC(c1ccc(F)cc1)CC2C(F)(F)F` (stereo not given) was tested, and the activity change, negative = inhibition was inactive: -15.1%.
`COc1ccc(-n2nc3cc(C)c(NC(=O)CC(C)C)cc3n2)cc1` was tested, and the Potency was inconclusive [inhibitor, partial curve].
`O=C(CSc1nc2sc3c(c2c(=O)[nH]1)CCCC3)NCCO` was tested, and the Potency was inconclusive [inhibitor, partial curve].
For `CS(=O)(=O)N1CCN(C(=O)c2cc3ccccc3oc2=O)CC1`, the Potency was inconclusive [inhibitor, partial curve].
With `CCCCNc1nc(C)nc2c1nc(-c1ccccc1)n2CCN(C)C` the Potency was inconclusive [inhibitor, partial curve].
In the case of `O=[N+]([O-])c1ccc(NN=C2c3ccccc3Cc3ccccc32)c([N+](=O)[O-])c1`, the activity change, negative = inhibition is reported as inactive: -6.36%.
`Cn1c(C(=O)N2COCC2(C)C)cc2c(=O)n3ccccc3nc21` was tested, and the Potency was inconclusive [inhibitor, partial curve].
`CCSc1nc(O)c(C2OC(=O)c3c2ccc(OC)c3OC)c(=O)n1-c1ccccc1` (stereo not given) was tested, and the activity change, negative = inhibition was inactive: -0.977%.
In the case of `O=C(COC(=O)c1ccc(CO)cc1)NCc1cccs1`, the Potency is reported as active: 31.6 µM.
In the case of `COc1cc(/C=N/NC(=O)CC23CC4CC(CC(C4)C2)C3)cc(Br)c1OCC(=O)N(C)C`, the activity change, negative = inhibition is reported as inactive: -11.7%.
For `CC(=O)SCC[N+](C)(C)C`, the activity change, negative = inhibition was inactive: -10.4%.
`Cc1ccc(C)c(C(C)NC(=O)c2ccccc2Br)c1` (stereo not given) was tested, and the activity change, negative = inhibition was inactive: -2.28%.
In the case of `O=C(C1CC(c2ccccc2O)=NO1)N1CCc2ccccc2C1` (stereo not given), the Potency is reported as active: 15.8 µM.
In the case of `Oc1ccc2ccccc2c1N=Nc1ccccn1`, the Potency is reported as active: 31.6 µM.
For `CCOC(=O)Cc1cc(-c2ccc(F)cc2)nc2ccc3ccccc3c12`, the Potency was inconclusive [inhibitor, single point].
For `Oc1ccc(-c2csc(-c3c[nH]c4ccccc34)n2)c(O)c1`, the Potency was inconclusive [inhibitor, partial curve].
For `CCOc1ccc(-c2cc(C)n3nc(C(N)=O)cc3n2)cc1`, the Potency was inconclusive [inhibitor, partial curve].
For `CC1CCN(c2c(NCC3CCC(C(=O)N4CCCCC4)CC3)c(=O)c2=O)CC1` (stereo not given), the Potency was active: 0.501 µM.
With `CCCn1c(=O)c2ccccc2n2c(SCc3cc(=O)oc4ccc5ccccc5c34)nnc12` the Potency was inconclusive [inhibitor, single point].
`COc1ccc(NC(=O)Cn2cnc3c(cnn3-c3ccc(C)c(C)c3)c2=O)c(OC)c1` was tested, and the Potency was inconclusive [inhibitor, single point].
For `O=S(=O)(c1cccc(-c2cn3cccnc3n2)c1)N1CCOCC1`, the Potency was inconclusive [inhibitor, partial curve].
For `Cc1ccsc1C1NC(=O)c2ccccc2N1` (stereo not given), the Potency was inconclusive [inhibitor, partial curve].
With `O=C(ONc1ccc(N=NC(=O)c2ccccc2O)cc1)c1ccccc1` the Potency was inconclusive [inhibitor, partial curve, poor fit].
For `Cc1nc(N(C)C)ncc1C(=O)O`, the Potency was inconclusive [inhibitor, partial curve].
For `O=C(C1CCCN(S(=O)(=O)c2ccccc2)C1)N1CCN(c2ncccn2)CC1` (stereo not given), the Potency was inconclusive [inhibitor, partial curve, poor fit].
In the case of `O=C1CC(Sc2nnnn2C2CCCCC2)C(=O)N1c1ccccc1` (stereo not given), the Potency is reported as inconclusive [inhibitor, single point].
With `N#Cc1nc(-c2ccc(F)cc2)oc1NCc1ccccc1` the Potency was inconclusive [inhibitor, partial curve].
With `O=C(c1cccc(C(=O)N2CCN(c3ccccc3F)CC2)c1)N1CCN(c2ccccc2F)CC1` the activity change, negative = inhibition was inactive: -12.5%.
With `O=C1CCCC2=C1C(c1cccs1)Nc1ccc3ncccc3c12` (stereo not given) the Potency was inconclusive [inhibitor, partial curve].
With `CC(C)C1NC(C(=O)O)Cc2c1[nH]c1ccccc21` (stereo not given) the Potency was inconclusive [inhibitor, partial curve].
With `COC(=O)c1cc(-c2ccc3c(c2)OCO3)nc2ccccc12` the Potency was inconclusive [inhibitor, partial curve].
In the case of `COc1ccc(/C=C2\SC(N3CCc4ccccc4C3)=NC2=O)cc1`, the Potency is reported as inconclusive [inhibitor, single point].
In the case of `COc1ccccc1C(=O)Nc1ccc2c3c(cccc13)CC2`, the Potency is reported as inconclusive [inhibitor, partial curve].
With `CCOC(=O)c1c(NC(=O)COC(=O)Cn2c(C)nc3ccccc32)sc2c1CCCC2` the activity change, negative = inhibition was inactive: -19.7%.
For `CCCc1c(O)c2ccccc2n(-c2ccccc2)c1=O`, the Potency was inconclusive [inhibitor, partial curve].
`CCCCNC(=O)CSc1nc2n[nH]c(C)c2c(=N)n1-c1cccc(Cl)c1C` was tested, and the Potency was inconclusive [inhibitor, single point].
In the case of `N#Cc1c(N)nc(SCC(=O)NCc2ccc3c(c2)OCO3)c(C#N)c1-c1cccs1`, the Potency is reported as inconclusive [inhibitor, single point].
For `CC1=CN2CC(O)CN=C2C=C1` (stereo not given), the Potency was inconclusive [inhibitor, partial curve].
With `CCOC(=O)c1c(NC(=O)CN2C(=O)NC(C)(c3ccc(OC(F)F)cc3)C2=O)sc(C)c1C` (stereo not given) the Potency was inconclusive [inhibitor, partial curve].
`CCOC(=O)c1ccccc1NC(=O)CC1Nc2ccccc2NC1=O` (stereo not given) was tested, and the Potency was inconclusive [inhibitor, partial curve].
In the case of `O=C(OC(C(=O)NCc1ccc2c(c1)OCO2)c1ccccc1F)c1ccco1` (stereo not given), the Potency is reported as inconclusive [inhibitor, partial curve].
For `CN(Cc1ccccc1)C(=O)c1c[nH]c2ccc(S(=O)(=O)N3CCOCC3)cc2c1=O`, the Potency was inconclusive [inhibitor, partial curve].
In the case of `COc1cc([N+](=O)[O-])ccc1NC(=S)Nc1cccc(C(=O)O)c1`, the Potency is reported as inconclusive [inhibitor, single point].
With `Cc1cccc(NC(=S)N(CCN(C)C)C(C)c2ccco2)c1` (stereo not given) the activity change, negative = inhibition was inactive: -15.4%.
With `COc1ccc2ncc(S(=O)(=O)c3ccccc3)c(N3CCN(c4ccccc4)CC3)c2c1` the Potency was inconclusive [inhibitor, partial curve].
`CC(=O)C1=C(C)NC(SCC(=O)c2ccc(-c3ccccc3)cc2)=C(C#N)C1c1cccnc1` (stereo not given) was tested, and the activity change, negative = inhibition was inactive: -4.92%.
With `CCCc1cc2c(OC(=O)CC)c(-c3ccc(C(=O)OCC)o3)c(=O)oc2cc1OC` the Potency was inconclusive [inhibitor, partial curve].
`COCCn1c(-c2ccc(OC)cc2)nc2ccccc21` was tested, and the activity change, negative = inhibition was inactive: -20.8%.
In the case of `CC(=O)c1c(C)nc(-c2ccccc2)n1O`, the activity change, negative = inhibition is reported as inactive: -12.8%.
In the case of `CN1CCN(c2ncc3ncc(=O)n(Cc4cccs4)c3n2)CC1`, the Potency is reported as inconclusive [inhibitor, partial curve].
For `Cc1ccc(CSc2ncnc3c2cnn3-c2ccc(C)cc2)cc1`, the Potency was inconclusive [inhibitor, single point].
For `COc1cc(OC)c(C2CC(=O)N3CN(c4ccccc4C)CSC3=C2C#N)cc1OC` (stereo not given), the Potency was active: 8.91 µM.
`COc1cccc(-c2cc(C(=O)N3CCc4ccccc4C3)no2)c1` was tested, and the Potency was active: 20 µM.
With `O=C(NCc1cccs1)c1ccc([N+](=O)[O-])cc1Cl` the Potency was inconclusive [inhibitor, partial curve].
For `O=C(CN1C(=O)c2cccc3cccc1c23)Nc1ccc(S(=O)(=O)Nc2nccs2)cc1`, the Potency was inconclusive [inhibitor, partial curve].
With `O=C1CN(C(=O)COC(=O)c2cccc(S(=O)(=O)NCc3ccccc3)c2)c2ccccc2N1` the Potency was inconclusive [inhibitor, partial curve].
For `Fc1ccc(Sc2ccccc2CNC2=NCCN2)cc1`, the activity change, negative = inhibition was inactive: -5.92%.
In the case of `Cc1noc(C)c1-c1nc(N2CCOCC2)c2ccccc2n1`, the Potency is reported as active: 25.1 µM.
For `O=S(=O)(Nc1ccc2c(c1)OCO2)c1ccccc1`, the Potency was inconclusive [inhibitor, partial curve, poor fit].
In the case of `NC(Cc1c[nH]c2ccccc12)C(=O)NCC(=O)O` (stereo not given), the activity change, negative = inhibition is reported as inactive: -3.13%.
With `CCN(CC)CCCNC(=O)c1nn(-c2ccccc2OC)c(=O)c2ccccc12` the activity change, negative = inhibition was inactive: -6.98%.
In the case of `Cc1ccc(-n2c(=O)c3c4c(sc3n(Cc3cc(=O)n5ccccc5n3)c2=O)CCC4)cc1C`, the Potency is reported as inconclusive [inhibitor, partial curve].
In the case of `CCn1c2c(c3cc(Cl)ccc31)CCCC2=O`, the Potency is reported as inconclusive [inhibitor, partial curve].

Reference: PubChem BioAssay AID894 (National Center for Advancing Translational Sciences (NCATS), 2007)
% is scaled to controls: 0 for no effect and ±100 for the full control effect; potency is read from the fitted curve at half-maximal effect; tags tell the direction and shape of the fitted curve.
